In this data set the test system is ATP. The data set can be described thus: switch fluorescence ratio, 500 uM ATP over buffer (Cy3 cluster intensity, sum of 5 cycles each) (fold (ratio)); higher = stronger signal-on switching upon ATP binding; sequences stand for … in TCGTCGGCAGCGTCAGATGTGTATAAGAGACAGTTTTTTTTTTTTTTTTTTTTTTTTT…TC. As to conditions: aptamer strand: ATP DNA aptamer (quencher-CACCTGGGGGAGTATTGCGGAGGAAGG + anchor), 100 nM annealed; ATP concentration: 500 uM; one replicate. The gist of the method:
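For every switch-domain sequence, the fluorescence ratio is the mean of per-cluster values, each being summed target-cycle Cy3 intensity over summed buffer-cycle Cy3 intensity. Clusters outside 100-1000 RFU were excluded. On a modified Illumina MiSeq flow-cell, the Cy3-labelled switching-strand clusters were annealed to 100 nM quencher-labelled ATP aptamer, imaged in selection buffer and then after 15 min with 500 uM ATP at 22 °C. Five such cycles were run, with NaOH stripping and re-annealing between them.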

Sequences with one replicate were seen in a single cluster, so their values are uncertain.
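Further: ATP exposure 15 min at 22 °C before imaging.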

Turning to TCGCGTTGAA, the switch fluorescence ratio was 1.03.

With GGGAATATCG, the switch fluorescence ratio turned out to be 1.06.

With AGGTTCGAAT, the switch fluorescence ratio turned out to be 1.04.

On to CTCGTCATGG, for which the switch fluorescence ratio amounted to 1.01.

On to CCAGTGGCCT, for which the switch fluorescence ratio stood at 1.05.

On to AGGCTGTGGT, for which the switch fluorescence ratio is 0.998.

As for GTAGATATAA, the switch fluorescence ratio is 0.968.

With TACCGTACGT, the switch fluorescence ratio amounted to 1.31.

Consider TTCGAGTGCG, for which the switch fluorescence ratio turned out to be 0.932.

For ACTTACATCT, the switch fluorescence ratio was 1.21.

Consider GAACGAACCG, for which the switch fluorescence ratio is 0.996.

As to AATCCGGGAT, the switch fluorescence ratio stood at 1.01.

For TTATAATGCA, the switch fluorescence ratio came to 0.933.

Regarding GGATTGTTTC, the switch fluorescence ratio is 0.97.

With TTCAGTCTA, the switch fluorescence ratio amounted to 0.988.

AAATGCAGGC: the switch fluorescence ratio stood at 1.03.

Take GACCTCAAAT: the switch fluorescence ratio amounted to 0.964.

As for GGCGTGGCGC, the switch fluorescence ratio amounted to 0.983.

AGAGCGCAAT: the switch fluorescence ratio was 5.61.

GTTATGTGAT: the switch fluorescence ratio turned out to be 1.05.

As to AACGGATAGT, the switch fluorescence ratio was 0.969.

For ACGAAATATC, the switch fluorescence ratio was 2.6.

On to AGAGTTTCTG, for which the switch fluorescence ratio is 1.

For AACAGCTGAT, the switch fluorescence ratio turned out to be 1.04.

GTAGTCGGCA: the switch fluorescence ratio turned out to be 1.02.

Regarding CTAGGATAGA, the switch fluorescence ratio was determined as 0.993.

On to CCAGTCGTGT, for which the switch fluorescence ratio was 1.05.

Regarding AACCCTGCCT, the switch fluorescence ratio stood at 1.27.

With AGCATTTGTT, the switch fluorescence ratio came out at 1.01.

Take CGCCTTAATA: the switch fluorescence ratio is 1.09.

As for GTTTCGAGAG, the switch fluorescence ratio was 1.04.

Turning to GAACAAAAGG, the switch fluorescence ratio was 1.03.

On to TATTTCGTAG, for which the switch fluorescence ratio was 0.995.

In the case of ACTTACTTGA, the switch fluorescence ratio worked out at 1.11.

As for TGACATATAA, the switch fluorescence ratio amounted to 1.21.

TCTAATATT: the switch fluorescence ratio is 1.01.

For TCAACGCAGC, the switch fluorescence ratio came out at 1.59.

In the case of AGAAGTTTAA, the switch fluorescence ratio amounted to 0.925.

On to CGGGGTTCAT, for which the switch fluorescence ratio worked out at 0.99.

For AACGCCGTAG, the switch fluorescence ratio was 1.02.

AATAGGCCAA: the switch fluorescence ratio stood at 1.

CTCAGCCCAA: the switch fluorescence ratio turned out to be 1.35.

With TATGATTCGC, the switch fluorescence ratio worked out at 0.95.

On to GCTCATGTTT, for which the switch fluorescence ratio is 1.01.

Consider CGATCTGCAT, for which the switch fluorescence ratio was determined as 1.59.

As for TTATACCTGC, the switch fluorescence ratio is 1.02.

Regarding TGAAGAGTAG, the switch fluorescence ratio was determined as 1.02.

Turning to CAATATCTAT, the switch fluorescence ratio is 1.

CTAAGAA: the switch fluorescence ratio was 0.969.

As to CGAGCGACCG, the switch fluorescence ratio was 1.01.

TAGGCGTACT: the switch fluorescence ratio was 1.1.

Take GAACATCCTT: the switch fluorescence ratio came to 1.08.

For the sequence GTAAACTTTA, the switch fluorescence ratio worked out at 1.

For the sequence TGATGCCGCC, the switch fluorescence ratio was 1.13.

Take GTAGTAAAAA: the switch fluorescence ratio was found to be 1.04.

In the case of GGAGAATGGA, the switch fluorescence ratio is 0.972.

In the case of TAAACGTGTT, the switch fluorescence ratio stood at 1.05.

On to CAGAATAGGG, for which the switch fluorescence ratio worked out at 1.03.

Consider GGTGCAGTTG, for which the switch fluorescence ratio was found to be 0.964.

As to ACTAAATGGG, the switch fluorescence ratio turned out to be 0.985.

Take TGAAAGGGGT: the switch fluorescence ratio was 0.972.

As for AAGTGGACGG, the switch fluorescence ratio came out at 0.996.

TCGTCACCTA: the switch fluorescence ratio was 1.04.

Consider CGGCTAGCGC, for which the switch fluorescence ratio came to 1.03.

Take TGCTCCGTCA: the switch fluorescence ratio turned out to be 1.89.

Consider ACTGAGTCCC, for which the switch fluorescence ratio was determined as 1.14.

In the case of GGTTACGGAT, the switch fluorescence ratio worked out at 0.965.
